In the supplement of paper PMC10126150:
Sequences with one replicate were seen in a single cluster, so their values are uncertain.

Test system: ATP
Experiment: switch fluorescence ratio, 500 uM ATP over buffer (Cy3 cluster intensity, sum of 5 cycles each) (fold (ratio)); higher = stronger signal-on switching upon ATP binding; sequences stand for … in TCGTCGGCAGCGTCAGATGTGTATAAGAGACAGTTTTTTTTTTTTTTTTTTTTTTTTT…TC
Details: aptamer strand: ATP DNA aptamer (quencher-CACCTGGGGGAGTATTGCGGAGGAAGG + anchor), 100 nM annealed; ATP concentration: 500 uM; one replicate
Outline: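 Cy3-labelled switching-strand clusters on a modified Illumina MiSeq flow-cell were annealed to 100 nM quencher-labelled ATP aptamer and imaged first in selection buffer, then after 15 min with 500 uM ATP at 22 °C. NaOH stripping and re-annealing separated each of five buffer/ATP cycles, and clusters outside 100-1000 RFU were excluded. The fluorescence ratio sums target-cycle Cy3 intensity over buffer-cycle Cy3 intensity per cluster and averages it per switch-domain sequence.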
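Further: ATP exposure 15 min at 22 °C before imaging.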

Sequence | switch fluorescence ratio
GAGCCGCATC | 1.16
CCGTAGTACG | 1.55
ACGTGGTTCC | 1.06
GTCACCTTT | 0.98
CGCTGGTACC | 1.09
CTCCTAGAAT | 1.04
AAGTTGAGCA | 0.983
AGTGAGTTCT | 0.994
CTCATGATTG | 0.993
GCAGATGCAA | 0.984
CAGTGATCAG | 0.973
CATAGTCTTA | 0.976
ACTCGCTGCC | 1.2
TCTATCACAG | 0.973
TTCATAAGCG | 0.993
CAGGTATGGA | 0.989
CATGTAACGT | 1.08
CAAAGTACC | 1.22
GAATTGATAG | 1.04
TCATAATCC | 0.995
ACCACTATCC | 1.06
ATGAAAGACA | 0.994
TCCAAATAA | 0.999

Sequence | switch fluorescence ratio
GGCTGCATAG | 0.976
AACTATTCTG | 0.996
AGGATACCTT | 1.08
CCGACGAGAG | 1.51
AGAACTTGTG | 1.05
TCGATGGAA | 1
CTTAGAATTC | 0.971
GGGATTTGT | 0.979
GGGGGTCTAA | 0.991
TCAAAGAGTG | 0.917
GCCTGAGGAC | 1.04
CAGGGGTCGC | 0.934
CAGGGGTTAA | 0.99
CATGTAAAGG | 0.967
CGCCTCATTC | 1.29
CGATTCTTCT | 0.996
ATGAGAGTCC | 1.02
TGAGAATGG | 1
AAAGCCGCGC | 1.09
TAAGAGCGTG | 0.993
ATAGTTGT | 0.944
CAAATCTTTA | 1
TATGGGTTGC | 0.942

Sequence | switch fluorescence ratio
TGCCAAGGTC | 0.997
CGATAAGGGT | 1.03
GAAAGCCAAC | 1.06
TATTACATAT | 1.06
AGGTCTGGGT | 1
ATGGTCGACC | 1
CGGTTTTAAA | 1.04
GTGTAATAGA | 0.98
AAGGCTCTAA | 1.01
GATGATTTAT | 1.01
GCTACGTAC | 1.86
CCTATGTTCT | 0.999
TCGATAGTTT | 0.999
CCCACGGGGA | 1.03
TGGAATAGCT | 0.944
GCCATAGATG | 1
GGCGTTGATA | 1
TCAACAGCGT | 1.03
AGATCGTTCC | 1.51
AAAGACATCC | 1.07
TGCATCCACC | 1.08
GCTAGAGCAA | 1.1
GCACCAAATT | 1

Sequence | switch fluorescence ratio
CTGCGTACTA | 1.17
TCGCGGGATG | 1.03
CAGGAGCAGG | 1.06
GACGCAGCGG | 1.25
CGAGGCTTCA | 1.08
GGGCTTGACA | 1.03
GTAAGTAAAT | 1.06
TCCCCACTT | 1.01
CGTGAATTCG | 0.991
TAACTATGCT | 1.03
TTTAGCATAT | 1.1
CGTGGGTTGC | 0.974
GAATGATAGG | 0.988
GGATTATCAC | 0.976
GGAAGAAGGC | 1.02
CAGGTTCAGC | 0.967
CAGAAAGGTA | 1.04
TGTTACTATA | 1.08
GGGACAGGG | 0.945
TAGATCTTAG | 1.02
CCTGGTTAAA | 1.04
AAAACATTGG | 1.04
CACCCACTGG | 1.16

Sequence | switch fluorescence ratio
AGGGAATT | 0.978
AGACAAATGT | 0.97
GCCATTGAA | 1.01
TTTCTGCCGT | 1.05
GGGAAGGGAC | 1
CATTGAGTGG | 0.965
TATTGGGGTA | 1.02
GCGTTACGAA | 1.02
CTTTTGTCG | 1.03
AAGTTCCTCG | 1.22
AGGGCACAGA | 0.999
CTACTCATGG | 1.01
TCGTCGGGGG | 1
TAATACGCGC | 1.07
CTTCTGAAGT | 1.16
CTCAGGTTTG | 1.02
TTCCAATTGT | 1
CGCTAGTAGC | 1.05
AGCACTAGA | 1.07
TTGTGTCGGT | 0.977
GGAACAGGTT | 1.06
AAATGGTTGC | 0.973
CCCGTGTTTG | 1.03

Sequence | switch fluorescence ratio
AACGATATTG | 1.02
TCTATCATAC | 1.18
GTAGGTAGAG | 0.968
GGTAGGTAGA | 1.04
TTGCTACAGA | 1.04
ATGTGGTTGA | 0.972
CGGGTAATAT | 1.15
AAAATTAATC | 1.05
TCCGCTCGTC | 2.06
ATAGTCTCTG | 1.06
GCACCCTTGT | 1.02
TGGGCCATCA | 0.987
TACCAGTTAT | 0.963
CAAAGTTCCA | 0.967
GACCTGGAAC | 1.08
AGCTAAGTTC | 0.941
GAGTTGATAT | 1
TATGACCGAC | 1.18
TGGGGCTCAA | 1
ATAAGGCTCT | 1.01
CGGCCAAACA | 1.06
TACTTAAAGA | 1.03
CGCTATCGCC | 1.42

Sequence | switch fluorescence ratio
TGCGTGCGCT | 1.04
GTCAGCCTAG | 1.02
ACAGTAGTGA | 0.996
GATCACTTGG | 1.03
ATGAAAGACT | 1.01
TGTGACGCTC | 1.04
GAGTCTCGGC | 0.99
AGCTTAATCT | 0.985
GCCCGGTAGC | 1.06
AAGATGATTC | 0.991
GCCAACGTGC | 1.09
ATCGCCCGGA | 0.997
TGGTGCCTTT | 0.99
CAAAGGTATC | 1.01
CGCCCCGCCG | 0.944
GTGTTAGAA | 0.935
GCTGGCGCCA | 1.03
ATATACGGAG | 1
TTGAGGTAAC | 1.01
